Measurements from PubChem BioAssay AID445 (National Center for Advancing Translational Sciences (NCATS), 2006).
Out of some 110,000 compounds screened, about 40 (0.04%) were called active. Inconclusive means that the source gave no clear call. Such entries were picked first, then a sample of the others. The call rests on the fitted dose curve; in most records, active means well fitted curve in the direction sought with a large enough effect in the signal ratio (not every such curve was filed as active); inconclusive means small, poorly fitted or top-dose-only effect, or a change in a side signal; inactive means flat fitted curve, though single readings scatter; the % refers to the signal ratio. A potency beside an inconclusive call is a rough fit, not a confirmed value.

Assay: IkB Signaling;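 on IkBa stabilization activation: 0% = basal untreated cells and 100% = reference inhibitor full response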
Settings: ABC-DLBCL IkBa-CBG/CBR dual luciferase ratio (green luciferase fused to IkBa over red control in OCI-Ly3 lymphoma cells), 4 h; IkBa stabilization activation: at 57.1 µM (top of the series), scaled: untreated 0%, proteasome inhibitor 100% unless noted
How it was run: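 In this assay, an IκBα–CBG68 fusion accumulates when IKK-driven degradation is blocked; native CBR normalizes for cell number. OCI-Ly3 cells were treated 4 h with compound and doxycycline, then green and red light read after Chroma-Glo addition.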
Potency means the concentration at half of the fitted maximal effect.

| SMILES | IkBa stabilization activation | Potency |
| --- | --- | --- |
| Cc1ccc(Cl)cc1-n1ncc2c(NC3CCCCC3)ncnc21 | inconclusive: -0.545% [signal inhibitor] |  |
| COC(=O)c1oc2ccc(OC)cc2c1N | inactive |  |
| CC(C)NC(=O)c1cc(-c2ccc(Br)cc2)on1 | inconclusive: 11.8% [signal inhibitor] |  |
| CCOC(=O)C1CCCN(S(=O)(=O)c2ccc3c(c2)CCN3C(=O)CC)C1 (configuration not stated) | inconclusive: -0.701% [signal inhibitor] |  |
| O=C(CSc1nncn2c1cc1occc12)Nc1ccccc1C(F)(F)F | inconclusive: 4.37% [signal inhibitor] |  |
| Cc1cccc2sc(N3CCN(C(=O)CS(=O)(=O)c4ccc(F)cc4)CC3)nc12 | inconclusive: 1.87% [signal inhibitor] |  |
| CCOC(=O)c1c(C)[nH]c(CCC(=O)Nc2c(Cl)cc(OC)cc2OC)c1C | inconclusive: 0.106% [signal inhibitor] |  |
| Cn1c(=O)cnc2cnc(Oc3ccccc3)nc21 | inactive: -3.19% [at 11.4 µM, scaled: untreated 0%, proteasome inhibitor 100%] |  |
| COc1ccc(-c2nc(C#N)c(N3CCCCCC3)o2)cc1 | inactive |  |
| Cc1c(Cl)ccc2c1NC(=O)[C@]21[C@@H]2C(=O)N(Cc3ccccc3)C(=O)[C@@H]2[C@@H]2CCCN21 | inconclusive: 5.25% [signal inhibitor] |  |
| CCc1ccc(S(=O)(=O)c2cnc3ccc(OC)cc3c2N2CCCC(C)C2)cc1 (configuration not stated) | inconclusive: 0.967% [signal inhibitor] |  |
| Cc1cc(C(=O)N2CCN(c3ccc(F)cc3)CC2)c2c(C)nn(-c3cccc(Cl)c3C)c2n1 | inconclusive: 1.19% [signal inhibitor] |  |
| COc1ccc(CNC(=O)Cn2c(=O)nc(-c3ccccc3F)c3cc(Cl)ccc32)cc1OC | inactive |  |
| COc1ccccc1-c1cc(N)n(S(=O)(=O)c2ccc(F)c(C)c2)n1 |  | inconclusive: 12.6 µM [signal inhibitor, partial curve] |
| CC(C)(C)OC(=O)N[C@@H](Cc1ccccc1)c1nnc(S(=O)(=O)Cc2ccccc2)o1 |  | inconclusive: 3.98 µM [signal inhibitor, partial curve] |
| O=C(c1cc(-c2ccncc2)nc2ccc(Cl)cc12)N1CCN(C(=O)C2CCCO2)CC1 (configuration not stated) | inconclusive: 2.38% [signal inhibitor] |  |
| COc1ccc(N(CC(=O)Nc2cccc(SC)c2)S(C)(=O)=O)cc1Cl | inconclusive: -0.205% [signal inhibitor] |  |
| CC(=O)c1cccc(NC(=O)Nc2ccc(C(=O)N3CCCC3)cc2)c1 | inactive |  |
| Cc1ccc(NC(=O)c2ccc3oc(=O)c(S(=O)(=O)c4ccccc4)cc3c2)cc1C |  | inconclusive: 25.1 µM [rising, partial curve] |
| O=C(CSc1nnc(CNc2ccc(F)cc2)n1Cc1ccccc1)NCc1ccco1 | inconclusive: 3.65% [signal inhibitor] |  |
| Cc1ccc(NC(=O)Cn2nnc(-c3nc(-c4ccncc4)no3)c2N)c(C)c1 | inactive |  |
| CCOc1ccccc1N1CCN(S(=O)(=O)CC)CC1 | inactive |  |
| COc1ccc(Cn2nnnc2CN(Cc2cc3ccc(C)cc3[nH]c2=O)C2CCCC2)cc1 | inactive |  |

| SMILES | IkBa stabilization activation | Potency |
| --- | --- | --- |
| COc1ccccc1NC(=O)C1=C(C)Nc2nc(SCc3ccc(Cl)cc3)nn2C1c1ccccc1Cl (configuration not stated) | inconclusive: 1.52% [signal inhibitor] |  |
| CC(NC(=O)C1CCN(C(=O)c2ccc(-n3ccc4ccccc43)s2)CC1)c1ccccc1 (configuration not stated) |  | inconclusive: 15.8 µM [signal inhibitor, partial curve] |
| COc1ccc(-c2nn3c(-c4ccco4)nnc3s2)cc1OC | inactive |  |
| CCOC(=O)C1CCN(C(=O)CN2c3ccc(C(C)C)cc3-c3ccccc3S2(=O)=O)CC1 | inconclusive: 1.15% [signal inhibitor] |  |
| CC1CCN(C(=O)c2cc3c(=O)n(C)c4ccccc4c3s2)CC1 |  | inconclusive: 25.1 µM [signal inhibitor] |
| O=C(OCc1nnc(-c2ccccc2)o1)C1=COCCO1 | inactive |  |
| CCOC(=O)c1c(NC(C)=O)c2c3c(sc2n1Cc1ccc(Cl)cc1)CCCC3 | inconclusive: 0.707% [signal inhibitor] |  |
| COc1cc(C2NC(=O)N(C)C3=C2C(=O)N(c2cccc(Cl)c2)C3)ccc1O (configuration not stated) | inconclusive: 8.13% [signal inhibitor] |  |
| COc1cccc(-n2c(SCC(=O)Nc3cccc(Cl)c3)nc3c(oc4ccccc43)c2=O)c1 | inconclusive: 1.75% [signal inhibitor] |  |
| COc1cccc(Cn2c(=O)cnc3cncnc32)c1 | inconclusive: 12.8% [signal activator] [at 11.4 µM, scaled: untreated 0%, proteasome inhibitor 100%] |  |
| CS(=O)(=O)c1oc(-c2ccc(F)cc2)nc1S(=O)(=O)c1ccc(Cl)cc1 | inconclusive: -0.982% [signal inhibitor] |  |
| COc1ccc(-n2c(=O)c3c(C)c(C)sc3n(CC(=O)NCc3ccc(C)cc3)c2=O)c(OC)c1 | inactive |  |
| O=C(NCc1ccc(F)cc1)C1CCCN(c2ncnc3onc(-c4ccc(F)cc4)c23)C1 (configuration not stated) | inconclusive: 4.87% [signal inhibitor] |  |
| N#C/C(=C(/O)COC(=O)CCCNC(=O)c1ccc(Cl)cc1)c1nc2ccccc2[nH]1 |  | inconclusive: 31.6 µM [rising, partial curve] |
| COC(=O)c1ccc2c(=O)n(CC3CCCO3)c(SCC(=O)Nc3ccccc3OC)nc2c1 (configuration not stated) | inactive |  |
| COc1ccc(Cl)cc1NC(=O)CSC1=Nc2ccccc2C2=NC(CC(=O)NC3CCCCC3)C(=O)N12 (configuration not stated) | inconclusive: 1.22% [signal inhibitor] |  |
| COc1ccc(C(C)(C)C)cc1NC(=O)Nc1ccc2c(c1)OCO2 | inconclusive: 1.9% [signal inhibitor] |  |
| CCOC(=O)c1cc2sccc2n1CC(=O)N1CCCc2ccccc21 | inactive |  |
| COc1cccc(CNc2nccn(-c3cc(C)cc(C)c3)c2=O)c1 | inconclusive: 0.105% [signal inhibitor] |  |
| COc1ccc(NC(=O)Cn2c(=O)n(Cc3ccco3)c(=O)c3cc(OC)c(OC)cc32)cc1 | inconclusive: -1.02% [signal inhibitor] |  |
| Cc1ccc(NC(=O)CSC2=Nc3ccccc3C3=NC(Cc4ccccc4)C(=O)N23)cc1C (configuration not stated) | inactive |  |
| CCCCN(CCCNC(=O)c1ccc(Sc2ccc(Cl)cc2)c(NC(C)=O)c1)c1ccccc1 | inconclusive: -1.76% [signal inhibitor] |  |
| Cc1cc2c(cc1S(=O)(=O)CCC(=O)N1CCCC(C)C1)OCC(=O)N2 (configuration not stated) | inconclusive: 1.42% [signal inhibitor] |  |

| SMILES | IkBa stabilization activation | Potency |
| --- | --- | --- |
| Cc1cc(NC(=O)COc2cccc3cccnc23)no1 |  | inconclusive: 20 µM [signal inhibitor, partial curve] |
| COCCn1c(CCC(=O)Nc2ccc(C)c(Cl)c2)nc2cccnc21 | inconclusive: 0.903% [signal inhibitor] |  |
| O=C(O)c1cccnc1C(=O)O | inactive |  |
| CCSc1ncc(Cl)c(C(=O)Nc2ccc(S(=O)(=O)N3CCC(C)CC3)cc2)n1 | inconclusive: -4.34% [signal inhibitor] |  |
| Cc1c(Cl)cccc1NC(=O)Cn1cc(C(=O)C2CCCCC2)c2ccccc21 |  | inconclusive: 10 µM [signal inhibitor] |
| Cn1c(=O)c2c(nc(NCc3ccco3)n2C/C=C/c2ccccc2)n(C)c1=O | inconclusive: -2.12% [signal inhibitor] |  |
| Cc1cccc(CNC(=O)C(=O)Nc2ccccc2C)c1 | inconclusive: 6.25% [signal inhibitor] |  |
| Fc1ccccc1-n1ncc2c1ncn1nc(-c3ccccc3Cl)nc21 | inconclusive: 4.61% [signal inhibitor] |  |
| CC1CCCCN1CCCNC(=O)c1[nH]c2ccccc2c1Sc1ccc(Cl)cc1 (configuration not stated) | inconclusive: -1.3% [signal inhibitor] |  |
| COc1ccccc1CNC(=O)CCC1N=C2c3ccccc3N=C(SCC(N)=O)N2C1=O (configuration not stated) | inactive |  |
| Cc1ccc(CNC(=O)c2ccc(CSCc3ccccc3Cl)o2)cc1 | inconclusive: -1.13% [signal inhibitor] |  |
| Cc1ccc(S(=O)(=O)NCC(c2ccc(N(C)C)cc2)N2CCc3ccccc32)cc1C (configuration not stated) | inconclusive: 5.74% [signal inhibitor] |  |
| COC(=O)Cc1c(C)c2cc3c(c(C)c2oc1=O)OCN(CCc1ccccc1F)C3 | inconclusive: 1.83% [signal inhibitor] |  |
| Cc1ccc(NC(=O)c2c(NC(=O)Cc3ccccc3)sc3c2CCC3)cc1 | inconclusive: 1.85% [signal inhibitor] |  |
| CCN1C(=O)c2ccccc2Sc2ccc(NC(=O)Nc3ccccc3OC)cc21 | inconclusive: 2.48% [signal inhibitor] |  |
| CC(=O)Nc1coc2ccc(Br)cc12 | inconclusive: 9.19% [signal inhibitor] |  |
| Cc1cccc(CNc2ncnc3ccc(-c4ccccc4C#N)cc23)c1 | inactive: -0.465% [at 11.4 µM, scaled: untreated 0%, proteasome inhibitor 100%] |  |
| CC1CCN(C(c2ccc(F)cc2)c2sc3nc(-c4ccco4)nn3c2O)CC1 (configuration not stated) | inconclusive: 1.29% [signal inhibitor] |  |
| CC(=O)N1CCCc2cc(S(=O)(=O)Nc3ccc(Cl)cc3F)ccc21 | inactive |  |
| COc1cccc(Cn2c(=O)c(C)nc3cnc(N4CCOCC4)nc32)c1 | inactive: -0.629% [at 11.4 µM, scaled: untreated 0%, proteasome inhibitor 100%] |  |
| CCOc1ccc(-c2cc(CCCC(=O)NCCCOC)no2)cc1 | inconclusive: 6.47% [signal inhibitor] |  |
